Experimental data from PubChem BioAssay AID1768 (National Center for Advancing Translational Sciences (NCATS), 2009).
Out of some 270,000 compounds screened, about 620 (0.23%) were called active. The shares of active, inactive and inconclusive entries below differ from those in the screen. The call rests on the fitted dose curve; in most records, active means well fitted inhibition curve with a large enough effect in the polarisation, with a control signal flat (not every such curve was filed as active); inconclusive means small, poorly fitted or top-dose-only effect, or effect the other way, or a change in a side signal; inactive means no such curve, though single readings can be large or run the other way; the % refers to the polarisation. A potency beside an inconclusive call is a rough fit, not a confirmed value. A note “side channel” means that the fit belongs to a control or component signal, not to the main read-out.

molecular target: Menin (Homo sapiens) (UniProt O00255); test: qHTS Assay for Inhibitors Targeting the Menin-MLL Interaction in MLL Related Leukemias: Competition With Texas Red Labeled MLL-derived Mutant Peptide; settings: fluorescence polarization; FP activity change, negative = inhibition: at 61.6 µM (top of the series); on FP activity change, negative = inhibition: % of control where 0% means no effect
Excerpt: qHTS Assay for Inhibitors Targeting the Menin-MLL Interaction in MLL Related Leukemias NIH Chemical Genomics Center [NCGC] NIH Molecular Libraries Probe Centers Network [MLPCN] MLPCN Grant: MH084875-01A1 Assay Submitter (PI): Jolanta Grembecka, Tomasz Cierpicki, University of Virginia Translocations of the MLL (Mixed Lineage Leukemia) gene are frequently found in human leukemias affecting both children and adults. Fusion of MLL to one of more than 60 genes results in generation of oncogenic proteins upregulating Hox genes, which are vital to blood cell development. Patients harboring fusion of the MLL gene suffer from aggressive leukemias and respond poorly to available therapies. All of the oncogenic fusion proteins have a preserved N-terminal fragment of MLL that has been identified to interact with menin. It has been recently discovered that association with menin is critical to the leukemogenic activity of the MLL fusion oncoproteins. Selective targeting of the menin-MLL interaction could provide an attractive therapeutic approach to develop novel drugs for MLL-related leukemias. Small molecules blocking the menin-MLL interaction should reverse the oncogenic potential of MLL fusion proteins. We have developed and optimized a fluorescence polarization-based assay for the identification of Menin-MLL inhibitors. The assay was run employing two different MLL-derived peptides. The present assay uses a 12 amino acid peptide labeled with fluorescein at its N-terminus. This peptide consists of the menin high affinity binding motif from MLL and is potently bound by menin. Another peptide with a mutated sequence, labeled with Texas Red, was used in parallel as a less stringent screen for inhibitors.
The Menin protein, the MLL-wild type (w.t.) derived peptide (N-terminal 12 amino acids), the MLL-derived peptide labeled with Texas Red and the MLL-w.t. peptide labeled with Fluorescein were kindly supplied by laboratory of Dr. Jolanta Grembecka, University of Virginia. All protein and peptide solutions were stored in single use aliquots at -80C. The Eu3+ Cyrptate-conjugated mouse monoclonal antibody anti-6 Histidine (Eu3+-AB) and the Streptavidin-XL665 conjugate (XL665) were purchased from Cisbio International (Bedford, MA). All antibody and XL665 conjugate solution stocks were stored in single use aliquots at -20C. The Buffer components for all assays were purchased from Sigma-Aldrich (St. Louis, MO) and Invitrogen (Carlsbad, CA). FP Assay Reagents: 1. FP reaction buffer: 50 mM Tris-HCl pH 7.5, 50 mM NaCl, 1mM DTT. Before use, 0.05% BSA is added. 2. Menin protein, MLL-w.t. labeled with fluorescein, MLL-mutant peptide labeled with texas red. Stored in singe use aliquots at -80C. 3. MLL-w.t. unlabeled peptide as positive control: 10 uM final in FP buffer. FP Assay Procedure: 1. Prepare Menin at 200 nM, MLL-w.t.-fluorescein at 25 nM, and MLL-mutant-texas red at 50 nM mixture in FP buffer. 2. Prepare Menin at 200 nM, MLL-w.t.-fluorescein at 25 nM, MLL-mutant-texas red at 50 nM, and 10 uM MLL-w.t. unlabeled mixture in FP buffer. 3. Prepare MLL-w.t.-fluorescein at 25 nM and MLL-mutant-texas red at 50 nM mixture in FP buffer. 3. Dispense 4 ul per well of reagent in step 1 in columns 2, 4 - 48 in a black 1536 well plate, dispense 4 ul per well of reagents from steps 2 and 3 in columns 1 and 3 respectively. Incubate plate at ambient for 15 minutes. 4. Transfer 23 nl per well of compound to plate and incubate at ambient for 1 hr. 5. Read fluorescence polarization for each label using the PerkinElmer Envision. Envision protocol for fluorescein: FITC FP Dual Enh Mirror, Excitation filter 480, Emission filter (1) P-pol 535, Emission filter (2) S-pol 535 Envision protocol for texas red: FP Dual Enh Mirror, Excitation filter 555, Emission filter (1) P-pol 632, Emission filter (2) S-pol 632
Potency means the concentration at half of the fitted maximal effect; tags describe the fitted curve by direction and shape or compound fluorescence and quenching.

Sequence of UniProt O00255 (O00255 whole entry, looked up, the tested form may be a part): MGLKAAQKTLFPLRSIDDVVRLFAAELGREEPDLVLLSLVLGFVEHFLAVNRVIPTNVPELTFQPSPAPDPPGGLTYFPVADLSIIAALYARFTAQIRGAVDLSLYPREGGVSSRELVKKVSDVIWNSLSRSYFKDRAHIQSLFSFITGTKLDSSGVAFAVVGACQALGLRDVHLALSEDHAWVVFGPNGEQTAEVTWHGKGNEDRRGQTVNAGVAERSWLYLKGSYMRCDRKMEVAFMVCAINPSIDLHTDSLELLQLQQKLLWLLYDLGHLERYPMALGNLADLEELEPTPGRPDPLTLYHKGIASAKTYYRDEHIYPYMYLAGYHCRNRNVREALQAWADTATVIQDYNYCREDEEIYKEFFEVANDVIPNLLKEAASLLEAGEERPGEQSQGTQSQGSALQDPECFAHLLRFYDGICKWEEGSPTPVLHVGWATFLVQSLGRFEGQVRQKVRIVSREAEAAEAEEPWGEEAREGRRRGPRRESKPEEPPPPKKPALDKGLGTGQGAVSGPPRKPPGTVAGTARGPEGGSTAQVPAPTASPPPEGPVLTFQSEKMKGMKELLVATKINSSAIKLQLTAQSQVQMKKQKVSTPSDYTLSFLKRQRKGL

SMILES | Potency | FP activity change, negative = inhibition
COC(=O)c1sc(N2C(=O)C(O)=C(C(=O)c3ccc(C)o3)C2c2cccs2)nc1C (stereo not given) | inconclusive: 14.1 µM [quencher, side channel, partial curve] | 
CCOc1ccccc1NC(=O)COC(=O)Cc1ccc(-c2ccccc2)cc1 |  | inactive: 12.9%
O=C(NCc1ccccn1)c1cccn1-c1ncc(C(F)(F)F)cc1Cl | inconclusive: 10 µM [fluorescent, side channel, partial curve] | 
Brc1cccc(Nc2nc(-c3cccnc3)cs2)c1 | inconclusive: 31.6 µM [quencher, side channel, partial curve] | 
CC1CC(C)CN(S(=O)(=O)c2ccc(C(=O)Nc3sccc3C(N)=O)cc2)C1 (stereo not given) | inconclusive: 3.16 µM [quencher, side channel, full curve, poor fit] | 
CCOC(=O)N1CCC(NC(=O)c2ccc3c(c2)N(Cc2ccc(C)cc2)CCS3)CC1 | inconclusive: 3.98 µM [fluorescent, side channel, partial curve] | 
COc1ccc(CCNC(=O)CSc2nc(N)c3c(C)c(C)oc3n2)cc1OC | inconclusive: 39.8 µM [inhibitor, single point] | 
Nc1ccc(C(=O)OCc2nc3c(ccc4ccccc43)[nH]2)cc1 | inconclusive: 8.91 µM [quencher, side channel, partial curve, poor fit] | 
COc1cc2c3nnc(-c4ccc(F)cc4)c-3cn(Cc3ccccc3F)c2cc1OC |  | inactive: -9.98%
Cc1[nH]n(-c2ccccc2)c(=O)c1N=Nc1ccccc1O | inconclusive: 14.1 µM [quencher, side channel, partial curve] | 
O=C(Nc1cccc(C(F)(F)F)c1)c1cc(Br)cc(Br)c1O | inconclusive: 28.2 µM [quencher, side channel, partial curve] | 
CC(C)CC(C(=O)NCC1CCCO1)N(C(=O)Cn1nnc(-c2ccc(F)cc2)n1)c1cccc(C(F)(F)F)c1 (stereo not given) | inconclusive: 8.91 µM [fluorescent, side channel, full curve] | 
Cc1ccc(S(=O)(=O)N(CC(=O)Nc2cccc([N+](=O)[O-])c2)C2CCCCC2)cc1 | inconclusive: 22.4 µM [quencher, side channel, single point] | 
COc1ccc(CN2CCCN(C)CC2)c(OC)c1C | inconclusive: 6.31 µM [inhibitor, partial curve] | 
CSc1nsc(SC)c1NC(=O)Nc1ccccc1C | inconclusive: 39.8 µM [fluorescent, side channel, single point] | 
COC(=O)c1ccccc1N1C(=O)[C@@H]2C(c3ccc(Br)cc3)=NO[C@@H]2C1=O | inconclusive: 39.8 µM [inhibitor, single point] | 
O=C(NC1CC1)c1c[nH]c2ccc(S(=O)(=O)Nc3cccc(C(F)(F)F)c3)cc2c1=O | inconclusive: 22.4 µM [quencher, side channel, single point] | 
O=C(COC(=O)c1cc2ccccc2oc1=O)Nc1cccc(S(=O)(=O)N2CCCCCC2)c1 | inconclusive: 12.6 µM [inhibitor, partial curve, poor fit] | 
CCn1c(=O)cc(SCC(=O)NCc2ccco2)c2ccccc21 | inconclusive: 8.91 µM [inhibitor, full curve, poor fit] | 
O=C(Cn1cc[n+](Cc2ccccc2)c1)c1ccc([N+](=O)[O-])cc1 | inconclusive: 5.01 µM [inhibitor, partial curve] | 
CCCCCCCC/C=C\CCCCCCCC(=O)NCCO | inconclusive: 22.4 µM [fluorescent, side channel, partial curve] | 
Cc1ccc(F)cc1NC(=O)CN1CCN(Cc2ccccc2)CC1 | inconclusive: 15.8 µM [fluorescent, side channel, partial curve] | 
O=C(Nc1nnc(S(=O)(=O)N2CCN(c3ccc(F)cc3)CC2)s1)c1ccccc1 | inconclusive: 39.8 µM [inhibitor, single point] | 
Clc1cccc(N/N=C/c2ccc(N3CCOCC3)s2)c1 | inconclusive: 14.1 µM [quencher, side channel, partial curve] | 
CCOC(=O)c1c(N)sc2c(O)c(Br)ccc12 | inconclusive: 20 µM [quencher, side channel, partial curve] | 
N#Cc1ccc(NC(=O)CN2CCN(c3ccccn3)CC2)cc1 |  | inactive: -0.393%
O=C(CN1C(=O)COc2ccccc21)N1CCCC1 | inconclusive: 0.708 µM [inhibitor, partial curve, poor fit] | 
CC(C)c1ccc(NC(=O)c2snc3ccc(Cl)cc23)cc1 | inconclusive: 3.55 µM [quencher, side channel, full curve] | 

SMILES | Potency | FP activity change, negative = inhibition
O=C(O)c1ccc(N2Cc3ccccc3C2)cc1O | inconclusive: 25.1 µM [quencher, side channel, partial curve] | 
O=C(/C=C/c1ccc2c(c1)OCO2)Nc1c(C(=O)O)[nH]c2ccccc12 | inconclusive: 17.8 µM [quencher, side channel, partial curve] | 
Cc1ccccc1N1C(=O)C(Oc2ccc(Cl)cc2)C1CNCC1CCCO1 (stereo not given) | inconclusive: 28.2 µM [fluorescent, side channel, single point] | 
CN(C)CCNC(=O)/C(=N\O)c1ccccn1 | inconclusive: 31.6 µM [inhibitor, partial curve] | 
COc1ccc2[nH]cc(CCNc3nc(-c4ccc(C(=O)N(C)C)cc4)nc4ccccc34)c2c1 | inconclusive: 15.8 µM [quencher, side channel, partial curve] | 
O=C(O)COc1ccccc1C(Nc1ccccn1)c1cc(Cl)c2cccnc2c1O (stereo not given) | inconclusive: 25.1 µM [quencher, side channel, single point] | 
O=C1Nc2ccccc2Oc2cc([N+](=O)[O-])ccc21 | inconclusive: 25.1 µM [quencher, side channel, partial curve] | 
Cc1nn(CCCC(=O)Nc2cc(Oc3ccccc3)cc([N+](=O)[O-])c2)c(C)c1[N+](=O)[O-] | inconclusive: 17.8 µM [quencher, side channel, partial curve] | 
O=C1N(Cc2cccc(Cl)c2)C[C@@H]2C[C@@H](c3ccccn3)N3CCC[C@@]123 | inconclusive: 17.8 µM [fluorescent, side channel, partial curve] | 
COc1ccc(C(=O)Nc2nnc(S(=O)(=O)N3CCCCCC3)s2)cc1OC | inconclusive: 25.1 µM [quencher, side channel, single point] | 
Oc1ccccc1/C=N/n1c2ccccc2c2ccccc21 | inconclusive: 22.4 µM [quencher, side channel, partial curve] | 
CCCc1nnc(NC(=O)C2CC(=O)N(CCc3ccc(F)cc3)C2)s1 (stereo not given) | inconclusive: 39.8 µM [quencher, side channel, single point] | 
Cc1cc(C)n(C(=O)/C(C#N)=N/Nc2cc(Cl)cc(Cl)c2)n1 | inconclusive: 17.8 µM [quencher, side channel, partial curve] | 
COCCN(C/C=C/c1ccccc1)C/C=C/c1ccccc1 | inconclusive: 7.94 µM [inhibitor, partial curve, poor fit] | 
CC(C)CN1CCNC(=O)C1CC(=O)NCCc1ccc(C(F)(F)F)cc1 (stereo not given) |  | inactive: -4.07%
Cc1ccc(N2NC(=O)/C(=C/C=C/c3ccco3)C2=O)cc1C | inconclusive: 20 µM [quencher, side channel, partial curve] | 
C=C(C)CNC(=S)N=Nc1c(O)[nH]c2ccc([N+](=O)[O-])cc12 | inconclusive: 31.6 µM [quencher, side channel, single point] | 
COc1cccc(Cn2c(=O)c(-c3cc(F)cc(F)c3)nc3cnc(N4CCN(C)CC4)nc32)c1 | inconclusive: 25.1 µM [fluorescent, side channel, single point] | 
COc1ccc(C)cc1Nc1nc(N)c2ccccc2n1 | inconclusive: 22.4 µM [quencher, side channel, partial curve] | 
Nc1n[nH]c(=S)n1/N=C1/C(=O)Nc2ccccc21 | inconclusive: 20 µM [quencher, side channel, single point] | 
CCc1ccc(NC(=O)Nc2ccc3c(c2)N(C)C(=O)CS3)cc1 | inconclusive: 14.1 µM [quencher, side channel, partial curve] | 
CCOC(=O)Cc1csc(NS(=O)(=O)c2cc(Cl)ccc2Cl)n1 | inconclusive: 20 µM [quencher, side channel, single point] | 
COc1ccc(NC(=S)NCCc2c[nH]c3ccc(OC)cc23)c(OC)c1 | inconclusive: 12.6 µM [quencher, side channel, partial curve] | 
c1ccc(-n2ncc3c2ncn2nc(-c4ccco4)nc32)cc1 | inconclusive: 14.1 µM [quencher, side channel, partial curve] | 
CC(C)Oc1ccc2c(=O)cc(-c3ccccc3)oc2c1 | inconclusive: 35.5 µM [fluorescent, side channel, single point] | 
COc1ccc(Br)cc1C1N2CC3(C)CN1CC(C)(C2)C3=O (stereo not given) | inconclusive: 3.55 µM [inhibitor, single point] | 
COC(=O)CSc1ncnc2c1sc1nc(N3CCOCC3)c3c(c12)CCCC3 | inconclusive: 5.62 µM [inhibitor, full curve] | 
